# In all, about 48,000 compounds went through this assay and about 120 (0.25%) were called active. Inconclusive results (about 4%) are left out. The call rests on the fitted dose curve; in most records, active means well fitted activation curve with a large enough effect; inconclusive means small, poorly fitted or top-dose-only effect, or another doubt; inactive means no such curve, though single readings can be large or run the other way. Some of the results follow.
# Experiment: Primary qHTS for Identification of Small Molecule Activators of Huntingtin-Antisense Promoter Activity; further: nearly all actives have a fitted effect of over 55% in size
# Details: HEK293 HTT-AS promoter firefly luciferase reporter, 24 h; series mostly up to 57.5 µM; activity change, positive = activation: at the top concentration
# How it was run: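 HEK293 cells carrying firefly luciferase reporters were seeded at 2,500 per well in Opti-MEM and cultured for 24 h. They were then treated with compounds at up to 57.5 uM final for 24 h at 37 degrees C before Dual-Glo luminescence readout.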
row,Compound,"activity change, positive = activation"
1,CCOc1ccccc1CNc1nc2nc(C)cc(C)n2n1,inactive: 17%
2,CNC(=O)c1ccccc1Sc1ccc2c(/C=C/c3ccccn3)n[nH]c2c1,inactive: -11.6%
3,O=C(NCCCN1CCN(c2ccccc2)CC1)c1ccc2nc(Cc3ccccc3)oc2c1,inactive: -41.2%
4,Cc1ccc(Cn2c(C(C)NC(=O)c3ccccc3)nc3ccccc32)cc1 (stereo not drawn),inactive: -18.8%
5,CCOC(=O)c1c(C)[nH]c(CCC(=O)Nc2ccc(OC)c(OC)c2)c1C,inactive: -16.9%
6,Cc1noc(C)c1S(=O)(=O)N1CCC(C(=O)N2CCN(c3cccc(C(F)(F)F)c3)CC2)CC1,inactive: -33.2%
7,CC(C)NC(=O)CCC(=O)N1Cc2ccccc2Oc2ncccc21,inactive: -4.78%
8,Cn1ccc2cc(S(=O)(=O)N3CCN(C(=O)Nc4ccc(F)cc4F)CC3)ccc21,inactive: -24.4%
9,CCC1CCCCN1C(=O)CSc1nc2c([nH]c3ccccc32)c(=O)n1-c1ccc(OC)cc1 (stereo not drawn),inactive: -28.1%
10,CC(CN1c2ccccc2Sc2ccccc21)N(C)C (stereo not drawn),inactive: -10.6%
11,COc1ccc(-c2cc3ccc(O)c(CN4CCC(C)CC4)c3oc2=O)cc1OC,inactive: -3.58%
12,Cc1cccc(Cn2cccc2CNS(=O)(=O)c2ccc(Br)cc2)c1,inactive: -9.88%
13,COc1cc(-c2nnc(SCCOc3cc(C)cc(C)c3)o2)cc(OC)c1OC,inactive: -5.13%
14,Cc1ccccc1CN1C(=O)c2ccccc2S(=O)(=O)c2ccc(C(=O)OCC3CCCO3)cc21 (stereo not drawn),inactive: -21.1%
15,Cc1ccc(C(C)C)c(OC(C)C(=O)NCC2(N(C)C)CCCCC2)c1 (stereo not drawn),inactive: -15.1%
16,COc1ccc(S(=O)(=O)Nc2cc(S(=O)(=O)c3ccccc3)c(O)c(C)c2C)cc1,inactive: -21.9%
17,Cc1cc(OC(C)C(=O)Nc2sc3c(c2C(N)=O)CCCC3)ccc1Cl (stereo not drawn),inactive: 5.27%
18,CC(NC(=O)CN1C(=O)c2cccnc2Oc2ccc(Cl)cc21)c1ccccc1 (stereo not drawn),inactive: -12.2%
19,COc1cccc(-c2nc(S(=O)(=O)c3ccc(C)cc3)c(N3CCCCC3)o2)c1,inactive: 9.91%
20,COc1ccccc1CNC(=O)c1ccc2nc(CCc3ccccc3)oc2c1,inactive: -25.2%
21,COc1ccc(-c2nc(SCC(=O)Nc3c(C)cc(C)cc3C)n[nH]2)cc1,inactive: -17.6%
22,CCOC(=O)c1c(C)oc2ncnc(Nc3ccc(OC)c(OC)c3)c12,inactive: -22.6%
23,COc1ccc(Cn2c(=O)c3cccnc3n(Cc3cccc(F)c3)c2=O)cc1,inactive: -17.7%
24,COC(=O)c1ccc(C(=O)OC)c(NC(=O)c2ccc(-c3ccccc3)s2)c1,inactive: 1.22%

row,Compound,"activity change, positive = activation"
1,CCOc1cc(N2CCC(O)CC2)ccc1Nc1ncc2c(n1)N(C)c1ccccc1C(=O)N2C,inactive: -24.6%
2,CCOC(=O)c1ccccc1NC(=O)CSc1nccn1Cc1ccco1,inactive: -3.1%
3,COc1ccccc1NC(=O)c1c(C)cc(C)nc1SCC(=O)c1ccc(Cl)cc1,inactive: -17.5%
4,CC(C)Oc1ccc(C(=O)N(Cc2ccco2)Cc2cccs2)cc1,inactive: -25.2%
5,O=C(CSc1ncc(S(=O)(=O)c2ccc(Cl)cc2)c(=O)[nH]1)Nc1cccc(C(F)(F)F)c1,inactive: -1.68%
6,Cc1cccc(C)c1NC(=O)c1sc(-n2nc(C)c(Cc3ccccc3)c2C)nc1C,inactive: 0.77%
7,Cc1cc(OCC(=O)N(Cc2ccc(N(C)C)cc2)CC2CCCO2)ccc1Cl (stereo not drawn),inactive: -19.2%
8,COc1ccc(-c2cc3nc(C)c(CCC(=O)NC4CCCCC4)c(C)n3n2)c(OC)c1,inactive: -6.4%
9,COC(=O)c1nnn(CC(=O)NC(=O)Nc2c(C)cccc2C)c1C(=O)OC,inactive: -14.9%
10,COc1ccc(C2CC(=O)c3cc(-c4nc(-c5ccc(Cl)cc5)cs4)c(=O)[nH]c3C2)cc1OC (stereo not drawn),inactive: -19.3%
11,NS(=O)(=O)c1ccc(NC(=O)C2Cc3ccccc3N2C(=O)c2ccccc2)cc1 (stereo not drawn),inactive: -12.6%
12,CCn1cc(C(=O)N2CCN(c3cccc(C)c3C)CC2)c2cc(OC)c(OC)cc2c1=O,inactive: -18.5%
13,CCCCN(CC)CCCNC(=O)c1nn(C)c2c1CSc1ccccc1-2,inactive: -0.104%
14,Cc1ccccc1C(=O)n1nc(-c2cccnc2)nc1NCc1ccccc1,inactive: -27.2%
15,COc1ccc(OC)c(CCNC(=O)Cn2ncc3c([nH]c4ccccc43)c2=O)c1,inactive: -3.82%
16,CCn1cc2nc(SCC(=O)Nc3ccccc3C(F)(F)F)n(Cc3ccc(C)cc3)c(=O)c2n1,inactive: -45.2%
17,COCCCNC(=O)CCC(=O)NNc1nc2ccccc2c2nc(C)nn12,inactive: -9.24%
18,COc1ccc(N2CC(NC(=O)C(c3ccccc3)c3ccccc3)CC2=O)cc1OC (stereo not drawn),inactive: -14.4%
19,COc1ccccc1CNS(=O)(=O)c1cnc(N)nc1,inactive: -10.5%
20,CC[C@@]1([C@@H]2O[C@@H]([C@H]3O[C@@](O)(CO)[C@H](C)C[C@H]3C)C[C@H]2C)CC[C@H]([C@]2(C)CC[C@]3(C[C@H](O)[C@@H](C)[C@@H]([C@@H](C)[C@@H](OC)[C@H](C)C(=O)O)O3)O2)O1,"inactive: -37.3% [at 25.1 µM, percent change from vehicle, -100% = no light]"
21,COc1ccc(C2c3c(n(C)c4ccccc34)C(=O)N2CC(=O)Nc2cccc(F)c2)cc1 (stereo not drawn),inactive: -24.5%
22,COc1ccc(NC(=O)c2oc3ccc(S(=O)(=O)N4CCOCC4)cc3c2C)cc1,inactive: -28.4%
23,Cc1ccc(N2CC(C)Cn3c2nc2c3c(=O)n(Cc3cccc(Cl)c3)c(=O)n2C)cc1 (stereo not drawn),inactive: -5.66%
24,CCCc1cc(=O)[nH]c2nnc(SCC)n12,inactive: 8.21%
